Values joined by “and” are separate entries in the source; they are usually repeats but may differ in a detail not shown here. Identical values can stand only once. The source gives many values for each of these; only a part stands here.
Tests used:
[1] = test system: Rat; experiment: concentration in plasma after dosing; details: 2 min; dosed: alpha/beta-Thujone mixture; 50 mg/kg; oral; Female; F344
[2] = test system: Rat; experiment: concentration in brain after dosing; details: 1.5 h; dosed: alpha/beta-Thujone mixture; 50 mg/kg; oral; Female; F344
[3] = test system: Rat; experiment: concentration in brain after dosing; details: 0.75 h; dosed: 76231-76-0; 3.0 mg/kg; iv; Female; F344
[4] = test system: Rat; experiment: concentration in brain after dosing; details: 3 h; dosed: alpha/beta-Thujone mixture; 50 mg/kg; oral; Male; F344
[5] = test system: Rat; experiment: concentration in plasma after dosing; details: 0.5 h; dosed: alpha/beta-Thujone mixture; 25 mg/kg; oral; Female; F344
[6] = test system: Rat; experiment: concentration in brain after dosing; details: 10 min; dosed: 76231-76-0; 3.0 mg/kg; iv; Female; F344
[7] = test system: Rat; experiment: concentration in plasma after dosing; details: 6 h; dosed: alpha/beta-Thujone mixture; 25 mg/kg; oral; Female; F344
[8] = test system: Rat; experiment: concentration in brain after dosing; details: 3 h; dosed: alpha/beta-Thujone mixture; 25 mg/kg; oral; Female; F344
[9] = test system: Rat; experiment: concentration in brain after dosing; details: 2 min; dosed: alpha/beta-Thujone mixture; 25 mg/kg; oral; Male; F344
[10] = test system: Rat; experiment: concentration in plasma after dosing; details: 6 h; dosed: alpha/beta-Thujone mixture; 25 mg/kg; oral; Female; F344; remark: listed apart in the source
[11] = test system: Rat; experiment: concentration in brain after dosing; details: 5 min; dosed: alpha/beta-Thujone mixture; 25 mg/kg; oral; Male; F344
[12] = test system: Rat; experiment: concentration in brain after dosing; details: 6 h; dosed: alpha/beta-Thujone mixture; 50 mg/kg; oral; Female; F344
[13] = test system: Rat; experiment: concentration in plasma after dosing
[14] = test system: Rat; experiment: concentration in brain after dosing; details: 5 min; dosed: alpha/beta-Thujone mixture; 25 mg/kg; oral; Female; F344
[15] = test system: Rat; experiment: concentration in brain after dosing; details: 10 min; dosed: alpha/beta-Thujone mixture; 25 mg/kg; oral; Female; F344
[16] = test system: Rat; experiment: concentration in plasma after dosing; details: 1.5 h; dosed: alpha/beta-Thujone mixture; 25 mg/kg; oral; Female; F344
[17] = test system: Rat; experiment: concentration in plasma after dosing; details: 1 h; dosed: 76231-76-0; 3.0 mg/kg; iv; Female; F344
[18] = test system: Rat; experiment: concentration in brain after dosing; details: 0.5 h; dosed: alpha/beta-Thujone mixture; 50 mg/kg; oral; Female; F344
[19] = test system: Rat; experiment: concentration in brain after dosing; details: 6 h; dosed: alpha/beta-Thujone mixture; 25 mg/kg; oral; Female; F344
[20] = test system: Rat; experiment: concentration in plasma after dosing; details: 6 h; dosed: alpha/beta-Thujone mixture; 50 mg/kg; oral; Male; F344
[21] = test system: Rat; experiment: concentration in liver after dosing; details: 8 h; dosed: 3,3',4,4',5-pentachlorobiphenyl; 1000 mg/kg; oral; Female; F344
[22] = test system: Rat; experiment: concentration in liver after dosing; details: 16 h; dosed: 3,3',4,4',5-pentachlorobiphenyl; 1000 mg/kg; oral; Female; F344
[23] = test system: Rat; experiment: concentration in liver after dosing; details: 3 h; dosed: 3,3',4,4',5-pentachlorobiphenyl; 1000 mg/kg; oral; Female; F344
[24] = test system: Rat; experiment: concentration in liver after dosing; details: 288 h; dosed: 3,3',4,4',5-pentachlorobiphenyl; 1000 mg/kg; oral; Female; Harlan Sprague Dawley
[25] = test system: Rat; experiment: concentration in liver after dosing; details: 288 h; dosed: 3,3',4,4',5-pentachlorobiphenyl; 1000 mg/kg; oral; Female; Harlan Sprague Dawley; remark: listed apart in the source
[26] = test system: mouse; experiment: concentration in blood after dosing; negative times count back from the end of exposure; details: dosed: tert-amyl methyl ether, inhalation, duration: 6 hr, female, CD-1 (Charles River)
In short: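 Data points giving concentration or amount against time came from published in vivo toxicokinetic studies and from two structured collections. PubMed searching, classifier screening and manual review located the studies. Most points were digitised from plot screenshots using WebPlotDigitizer, the rest were copied from tables, and all keep their reported units.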

CC(C)[C@]12CC(=O)[C@H](C)[C@H]1C2 [alpha-Thujone]
Details | concentration in brain [ng/g] | concentration in plasma [ng/mL]
[1] | – | 152
[2] | 1120 | –
[3] | 201 | –
[4] | 728 | –
[5] | – | 280
[6] | 2800 | –
[7] | – | 43
[8] | 172 | –
[9] | 149 | –
[10] | – | 7.17
[11] | 136 | –
[12] | 897 | –
[14] | 597 | –
[15] | 2090 | –
[16] | – | 136
[17] | – | 20.9
[18] | 2270 | –
[19] | 185 | –
[20] | – | 114

concentration in plasma [ng/mL], [13], dosed: alpha/beta-Thujone mixture, oral, F344
Details | 0.5 h | 1.5 h | 2 min | 3 h | 5 min | 6 h | 10 min | 12 h
25 mg/kg, Female | 215 | 118 | 14.1 | 86.5 | 110 | 26.1 | 594 | –
25 mg/kg, Male | 301 | 174 | 102 | 151 | 233 | 55.3 | 321 | 15.8
50 mg/kg, Female | 220 | 304 | 81.3 | 145 | 343 | 97.2 | 645 | 7.09
50 mg/kg, Male | 312 | 178 | 84.2 | 281 | 160 | 121 | 722 | 21.7

concentration in plasma [ng/mL], [13], dosed: 76231-76-0, 3.0 mg/kg, iv, F344
Details | Female | Male
0.25 h | 162 | –
0.5 h | 53.6 | –
0.75 h | 29.2 | 89.9
1 h | 18.2 | 76
1.5 h | 6.48 | –
2 h | 9.36 | 18.6
2.5 h | 5.48 | –
3 h | 7.31 | –
4 h | – | 11.3
5 min | 585 | 579
6 h | – | 18.6
8 h | – | 9.26
10 min | 253 | 249
12 h | – | 5.08
20 min | – | 167

Clc1ccc(-c2cc(Cl)c(Cl)c(Cl)c2)cc1Cl [3,3',4,4',5-pentachlorobiphenyl]
Details | concentration in liver [pg/g]
[21] | 19000
[22] | 17600
[23] | 10500
[24] | 7070
[25] | 11500

concentration in plasma [ng/mL], [13], dosed: 3,3',4,4',5-pentachlorobiphenyl, 1000 mg/kg, oral
Details | 7416 h | 8184 h | 8760 h
Female, F344 | 0.0635 | 0.0301 | –
Male, Harlan Sprague Dawley | 0.0339 | 0.0185 | 0.0175

CCC(C)(C)OC [tertiary amyl methyl ether]
[26]
Details | concentration in blood
0.1362 h, 100 ppm | 222 ng/mL and 355 ng/mL
0.1578 h, 100 ppm | 469 ng/mL
0.159 h, 500 ppm | 4840 ng/mL and 3010 ng/mL and 3920 ng/mL
0.5048 h, 100 ppm | 87.8 ng/mL
0.5231 h, 500 ppm | 3610 ng/mL and 2390 ng/mL and 3000 ng/mL
0.5264 h, 100 ppm | 250 ng/mL
0.9818 h, 100 ppm | 116 ng/mL and 249 ng/mL
1.871 h, 100 ppm | 95.8 ng/mL
1.932 h, 2500 ppm | 3240 ng/mL
1.933 h, 2500 ppm | 288 ng/mL
1.979 h, 500 ppm | 37.1 ng/mL
4.082 h, 100 ppm | 83.7 ng/mL
4.103 h, 500 ppm | 19.8 ng/mL
9.872 h, 100 ppm | 77.1 ng/mL
9.928 h, 500 ppm | 74.2 ng/mL
10.02 h, 2500 ppm | 995 ng/mL
17.83 h, 100 ppm | 77.6 ng/mL
17.89 h, 2500 ppm | 1280 ng/mL
17.94 h, 500 ppm | 111 ng/mL

concentration in blood, [26], during exposure
Details | -6 h | -5.788 h | -5.653 h | -5.454 h | -4.135 h | -4.089 h | -2.075 h | -2.032 h | -0.2107 h
100 ppm | 905 ng/mL | – | 1360 ng/mL | – | 1280 ng/mL and 1580 ng/mL and 1810 ng/mL | – | 2490 ng/mL and 2030 ng/mL and 910 ng/mL | 1350 ng/mL | 1700 ng/mL and 1570 ng/mL and 1500 ng/mL
500 ppm | – | 8660 ng/mL | – | 7230 ng/mL | – | 14100 ng/mL and 11900 ng/mL and 8850 ng/mL | – | – | –

Source: EPA's CvTdb concentration-time database
